Consider 43 compounds from paper PMC4336329 (PLoS ONE, 2015).

Screen size: about 310,000 compounds; about 14,000 (4.5%) showed an effect of 50% or more. Effects have a minus sign here. The list shows a part of the results.
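Note: peak tail current of the secondary pulse compared with the same well before compound.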

For the assay, the target named is human ether-à-go-go-related gene (hERG) potassium channel (human, UniProt Q12809). The assay is described as follows: primary screen, population patch clamp on CHO cells stably expressing hERG.
Chain of human ether-à-go-go-related gene (hERG) potassium channel (Q12809 whole entry, looked up): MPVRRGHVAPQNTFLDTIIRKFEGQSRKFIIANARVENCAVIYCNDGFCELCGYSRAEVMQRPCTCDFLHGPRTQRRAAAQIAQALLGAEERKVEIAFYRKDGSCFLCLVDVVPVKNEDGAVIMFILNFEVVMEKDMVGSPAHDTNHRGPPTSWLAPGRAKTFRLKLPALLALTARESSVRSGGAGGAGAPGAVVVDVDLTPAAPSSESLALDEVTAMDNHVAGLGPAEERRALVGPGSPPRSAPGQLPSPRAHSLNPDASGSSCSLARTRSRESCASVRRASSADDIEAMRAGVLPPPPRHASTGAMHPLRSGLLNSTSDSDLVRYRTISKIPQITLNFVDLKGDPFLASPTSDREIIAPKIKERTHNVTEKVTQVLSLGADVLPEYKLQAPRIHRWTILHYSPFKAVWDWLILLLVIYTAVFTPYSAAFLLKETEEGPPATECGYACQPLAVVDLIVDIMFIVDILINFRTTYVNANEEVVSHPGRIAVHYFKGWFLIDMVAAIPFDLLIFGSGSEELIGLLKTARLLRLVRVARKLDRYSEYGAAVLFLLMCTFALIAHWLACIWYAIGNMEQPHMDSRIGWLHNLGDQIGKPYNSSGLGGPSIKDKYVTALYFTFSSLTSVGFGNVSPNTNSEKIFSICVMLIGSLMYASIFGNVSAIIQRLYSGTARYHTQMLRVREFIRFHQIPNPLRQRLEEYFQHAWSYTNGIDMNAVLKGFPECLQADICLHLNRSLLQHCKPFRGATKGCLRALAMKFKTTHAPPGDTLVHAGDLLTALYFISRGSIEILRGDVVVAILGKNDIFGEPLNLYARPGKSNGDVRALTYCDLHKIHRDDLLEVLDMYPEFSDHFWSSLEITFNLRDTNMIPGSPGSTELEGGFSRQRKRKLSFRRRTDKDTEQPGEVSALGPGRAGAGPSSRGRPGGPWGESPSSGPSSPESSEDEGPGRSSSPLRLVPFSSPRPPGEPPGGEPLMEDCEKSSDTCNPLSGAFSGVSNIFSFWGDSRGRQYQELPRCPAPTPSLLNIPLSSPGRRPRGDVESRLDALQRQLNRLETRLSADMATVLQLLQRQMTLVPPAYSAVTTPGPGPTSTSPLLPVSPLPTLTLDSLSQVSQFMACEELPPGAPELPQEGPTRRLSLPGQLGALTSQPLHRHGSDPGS
Take `COc1cccc(C2C(C(=O)c3cc4ccccc4o3)=C(O)C(=O)N2CCN2CCOCC2)c1` (stereo not shown): the “hERG current change (%, negative = inhibition) at 10uM” value is on record as 16.7%. For `C=CCN(C(=O)c1csnn1)C(C(=O)NC1CCCC1)c1ccccc1F` (stereo not shown), the “hERG current change (%, negative = inhibition) at 10uM” value is 8.11%. The same measure for `O=C(COc1ccccc1)N1CCN(C(=O)c2ccco2)CC1`: -8.03%; for `C[C@@]12C(=O)N(c3cccc(Cl)c3)C(=O)N1[C@H](c1ccc(Cl)cc1)[C@@H]1C(=O)N(C3CCCCC3)C(=O)[C@@H]12`: 3.04%.

For the compound `CCN(c1ccccc1)S(=O)(=O)c1cc2c(cc1C)n(C)c(=O)c(=O)n2C`, the “hERG current change (%, negative = inhibition) at 10uM” value was -32%. `COc1cc(C)c(Br)cc1S(=O)(=O)N1CCOCC1`: the “hERG current change (%, negative = inhibition) at 10uM” value was 10.1%. Turning to `COc1ccccc1NC(=O)/C(C#N)=C/c1cccn1C`, the “hERG current change (%, negative = inhibition) at 10uM” value is given as -4.87%. In the case of `Cc1cccc(NC(=O)COc2coc(CN3CCc4ccccc4C3)cc2=O)c1`, the “hERG current change (%, negative = inhibition) at 10uM” value is given as -8.19%.

For the compound `Cc1ccc(NC(=O)C(C)NS(=O)(=O)c2ccc(F)cc2)cc1C` (stereo not shown), the “hERG current change (%, negative = inhibition) at 10uM” value is given as 5.74%. On to `CCOC(=O)CCC(NC(=O)CCCC(=O)NC(CCC(=O)OCC)C(=O)OCC)C(=O)OCC` (stereo not shown), for which the “hERG current change (%, negative = inhibition) at 10uM” value came out at 12.5%. The value for `CC(C)C(=O)Nc1nc(-c2ccc(S(=O)(=O)N3CCOCC3)cc2)cs1` was 9.7%; that for `FC(F)(F)c1ccccc1-n1c(-c2ccco2)n[nH]c1=S` was 20.5%. `O=C(CC(=O)Nc1ccc(Cl)cc1Cl)Nc1ccc(Cl)cc1Cl`: the “hERG current change (%, negative = inhibition) at 10uM” value was 23.2%.

As for `O=[N+]([O-])c1ccccc1S(=O)(=O)NC1CC2CCC1C2` (stereo not shown), the “hERG current change (%, negative = inhibition) at 10uM” value is -3.7%. On to `CC1CCCCN1Cc1nc2ccccc2c(=O)[nH]1` (stereo not shown), for which the “hERG current change (%, negative = inhibition) at 10uM” value is on record as 3.85%. For the compound `CC(C)c1ccccc1OCCNS(C)(=O)=O`, the “hERG current change (%, negative = inhibition) at 10uM” value is recorded as -2.89%. Consider `O=C(c1ccccc1)N1CCN(C(=S)NCc2ccco2)CC1`, for which the “hERG current change (%, negative = inhibition) at 10uM” value is given as -15.9%. The same measure for `Cc1cccc(C)c1-n1c(C)nn(CC#N)c1=O`: 19.1%. The same measure for `CCn1cc(C(=O)NCC(OC)OC)c(=O)c2cc(S(=O)(=O)N3CCC(C)CC3)ccc21`: -28.8%. For the compound `COCCNC(=S)N1CCOCC1`, the “hERG current change (%, negative = inhibition) at 10uM” value is 6.9%. For the compound `COc1cc(-c2nc3ccccn3c2/N=C/c2cc(OC)c(OC)c(OC)c2)ccc1O`, the “hERG current change (%, negative = inhibition) at 10uM” value was -28.6%. On to `CCOC(=O)N1CCN(c2cc3[nH]c(=S)[nH]c3cc2F)CC1`, for which the “hERG current change (%, negative = inhibition) at 10uM” value amounted to 9.95%. For `Cc1ccc(C(=O)N2CCOCC2)cc1S(=O)(=O)N1CCCC1`, the “hERG current change (%, negative = inhibition) at 10uM” value stood at 12.7%.

Consider `CCOCC(=O)OCC(=O)Nc1cc(OC)c([N+](=O)[O-])cc1C`, for which the “hERG current change (%, negative = inhibition) at 10uM” value was found to be 4.01%. For `COC(=O)CN1C(c2ccc(Cl)cc2)=Nc2ccc(Cl)cc2C1c1ccccc1` (stereo not shown), the “hERG current change (%, negative = inhibition) at 10uM” value was -17.7%. As for `CCOC(=O)Cn1cnc2sc(C(=O)OC)c(C)c2c1=O`, the “hERG current change (%, negative = inhibition) at 10uM” value worked out at 11.1%. Consider `O=C(C1CC(=O)N(c2ccc(Cl)cc2)C1)N1CCOCC1` (stereo not shown), for which the “hERG current change (%, negative = inhibition) at 10uM” value is reported as -0.293%. For the compound `C/C(=N\S(=O)(=O)c1ccc(C)cc1)N1CCN(S(=O)(=O)c2ccccc2)C1C(C)C` (stereo not shown), the “hERG current change (%, negative = inhibition) at 10uM” value is -23.6%. The same measure for `CC(C)(C)OC(=O)N1CCC(c2cc(=O)n3[nH]c(-c4ccc(Cl)cc4)cc3n2)CC1`: -0.197%; for `CCCCOC(=O)Nc1nc(CC(=O)OCC)cs1`: -25.9%. Take `O=C(C1CCC1)N1CCc2cc(S(=O)(=O)NCCN3CCN(c4ccccc4F)CC3)ccc21`: the “hERG current change (%, negative = inhibition) at 10uM” value was -11.7%. The value for `C=CCn1c(O)c(C(C)=NCc2cccnc2)c(=O)[nH]c1=O` was -3.23%. With `CCN1CCN(c2nc3ccccc3nc2C(C#N)S(=O)(=O)c2ccc(C)c(C)c2)CC1` (stereo not shown), the “hERG current change (%, negative = inhibition) at 10uM” value was -25.4%. The value for `CS(=O)(=O)N(CC(=O)NCc1ccncc1)c1cc(Cl)cc(Cl)c1` was -32%; that for `O=C(/C=C/c1ccc(Cl)cc1Cl)Nc1ccncc1` was 11%; that for `COc1ccc(OCC(O)CNS(=O)(=O)c2ccc(C)cc2)cc1` (stereo not shown) was 1.43%. The same measure for `c1ccc(-c2ccc(CN3C[C@@H]4C(c5ccccc5)C5(c6ccccc6)CC4(C5)[C@H]3c3ccccc3)cc2)cc1` (stereo partly shown): -5.02%. For the compound `O=C(NC1CCCC1)C(c1ccncc1)N(C(=O)Cc1cccs1)c1ccccc1` (stereo not shown), the “hERG current change (%, negative = inhibition) at 10uM” value was -1.29%. The value for `CCOc1ccc(Br)cc1S(=O)(=O)Nc1ccc(Cl)c(S(=O)(=O)N(C)C)c1` was 2.27%. The value for `COc1ccc(/C=C2/NC(=O)N(CC(=O)Nc3cccc(C)c3)C2=O)cc1O` was -14.8%. Regarding `COc1ccc(C(=O)OCC(=O)NC2CCCC2)c(OC)c1`, the “hERG current change (%, negative = inhibition) at 10uM” value is 16.1%. The value for `Cc1ccnc2nc(C(=O)NCc3ccccc3)nn12` was 13.1%. The same measure for `Cc1[nH]n(-c2ccccc2)c(=O)c1/C=N/N(C)c1ccccc1`: -7.26%.
